Assay results reported in the supplement of paper PMC12217912.
The other results are listed elsewhere or left out. Sequences were assembled here from the parent chain. Inactive controls read about 0.05.

B1: TEV protease; numbered along this chain (parent)
chain: MGESLFKGPRDYNPISSSICHLTNESDGHTTSLYGIGFGPFIITNKHLFRRNNGTLVVQSLHGVFKVKDTTTLQQHLVDGRDMIIIRMPKDFPPFPQKLKFREPQREERICLVTTNFQTKSMSSMVSDTSCTFPSGDGIFWKHWIQTKDGQCGSPLVSTRDGFIVGIHSASNFTNTNNYFTSVPKNFMELLTNQEAQQWVSGWRLNADSVLWGGHKVFMVKPEEPFQPVKEATQL

Variants of: B1
Test: raw area under fraction-flipped curve 0-4 h after induction (AUC4h, not background-subtracted), DNA-recorder readout of cleavage of the substrate (dimensionless); higher = more cleavage of the substrate by the protease variant
Settings: temperature: 34 °C; time window: 0-4 h after rhamnose induction
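Note: Bxb1 expression induced with 0.2% (w/v) L-rhamnose at OD600 near 0.5, cultures sampled hourly, flipped fraction per protease–substrate barcode pair counted by paired-end Illumina sequencing.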

Variant: MGESLFKGPRDYNPISSSICHLTNESDGHTTSLYGIGFGPFIITNKHLFRRNNGTLVVQSLHGVFKVKDTTTLQQHLVDGRDMIIIRMPKDFPPFPQKLKFREPQREERICLVTTNFQTKSMSSMVSDTSCTFPSGDGIFWKHWIQTKDGQCGSPLVSTRDGFIVGIHSASNFTNTNNYFTSVPKNFMELLTNQEAQQWVSGWRLNADSVLWGGHKVFMVKPTEPFQPVKEATQL [E223T]
- area with substrate ANLYFQS: 0.0581
- area with substrate CNLYFQS: 0.0735
- area with substrate DNLYFQS: 0.08
- area with substrate GNLYFQS: 0.046
- area with substrate HNLYFQS: 0.0697
- area with substrate INLYFQS: 0.069
- area with substrate KNLYFQS: 0.061
- area with substrate LNLYFQS: 0.0575
- area with substrate MNLYFQS: 0.0641
- area with substrate NNLYFQS: 0.0595
- area with substrate PNLYFQS: 0.0766
- area with substrate QNLYFQS: 0.0688
- area with substrate SNLYFQS: 0.0718
- area with substrate TNLYFQS: 0.0394
- area with substrate VNLYFQS: 0.0704
- area with substrate WNLYFQS: 0.0666
- area with substrate YNLYFQS: 0.051

Variant: MGESLFKGPRDYNPISSSICHLTNESDGHTTSLYGIGFGPFIITNKHLFRRNNGTLVVQSLHGVFKVKDTTTLQQHLVDGRDMIIIRMPKDFPPFPQKLKFREPQREERICLVTTNFQTKSMSSMVSDTSCTFPSGDGIFWKHWIQTKDGQCGSPLVSTRDGFIVGIHSASNFTNTNNYFTSVPKNFMELLTNQEAQQWVSGWRLNADSVLWGGHKVFMPKPEEPFQPVKEATQL [V220P]
- area with substrate ANLYFQS: 0.0494
- area with substrate CNLYFQS: 0.0659
- area with substrate DNLYFQS: 0.0754
- area with substrate FNLYFQS: 0.0472
- area with substrate GNLYFQS: 0.0629
- area with substrate HNLYFQS: 0.0585
- area with substrate INLYFQS: 0.0575
- area with substrate KNLYFQS: 0.0687
- area with substrate LNLYFQS: 0.0564
- area with substrate MNLYFQS: 0.0623
- area with substrate NNLYFQS: 0.0661
- area with substrate PNLYFQS: 0.0711
- area with substrate SNLYFQS: 0.0634
- area with substrate TNLYFQS: 0.0583
- area with substrate WNLYFQS: 0.0574
- area with substrate YNLYFQS: 0.0599

Variant: MGESLFKGPRDYNPISSSICHLTNESDGHTTSLYGIGFGPFIITNKHLFRRNNGTLVVQSLHGVFKVKDTTTLQQHLVDGRDMIIIRMPKDFPPFPQKLKFREPQREERICLVTTNFQTKSMSSMVSDTSCTFPSGDGIFWKHWIQTKDGQCGSPLVSTRDGFIVGIHSASNFTNTNNYFTSVPKNFMELLTNQEAQQWVSGWRLNADSVLWGGHKVFMIKPEEPFQPVKEATQL [V220I]
- area with substrate ANLYFQS: 0.0899
- area with substrate CNLYFQS: 0.0895
- area with substrate DNLYFQS: 0.0895
- area with substrate FNLYFQS: 0.0663
- area with substrate HNLYFQS: 0.0561
- area with substrate INLYFQS: 0.0779
- area with substrate LNLYFQS: 0.074
- area with substrate MNLYFQS: 0.0618
- area with substrate NNLYFQS: 0.0954
- area with substrate PNLYFQS: 0.0611
- area with substrate SNLYFQS: 0.064
- area with substrate TNLYFQS: 0.0689
- area with substrate VNLYFQS: 0.0648
- area with substrate WNLYFQS: 0.0547

Variant: MGESLFKGPRDYNPISSSICHLTNESDGHTTSLYGIGFGPFIITNKHLFRRNNGTLVVQSLHGVFKVKDTTTLQQHLVDGRDMIIIRMPKDFPPFPQKLKFREPQREERICLVTTNFQTKSMSSMVSDTSCTFPSGDGIFWKHWIQTKDGQCGSPLVSTRDGFIVGIHSASNFTNTNNYFTSVPKNFMELLTNQEAQQWVSGWRLNADSVLWGGHKVFMVKPEEIFQPVKEATQL [P225I]
- area with substrate ANLYFQS: 0.0624
- area with substrate CNLYFQS: 0.0561
- area with substrate DNLYFQS: 0.0577
- area with substrate GNLYFQS: 0.056
- area with substrate HNLYFQS: 0.0596
- area with substrate INLYFQS: 0.0455
- area with substrate KNLYFQS: 0.0515
- area with substrate LNLYFQS: 0.0532
- area with substrate PNLYFQS: 0.0693
- area with substrate SNLYFQS: 0.0645
- area with substrate TNLYFQS: 0.0658
- area with substrate VNLYFQS: 0.0514
- area with substrate YNLYFQS: 0.0464

Variant: MGESLFKGPRDYNPISSSICHLTNESDGHTTSLYGIGFGPFIITNKHLFRRNNGTLVVQSLHGVFKVKDTTTLQQHLVDGRDMIIIRMPKDFPPFPQKLKFREPQREERICLVTTNFQTKSMSSMVSDTSCTFPSGDGIFWKHWIQTKDGQCGSPLVSTRDGFIVGIHSASNFTNTNNYFTSVPKNFMELLTNQEAQQWVSGWRLNADSVLWGGHKVFMVKPEEFFQPVKEATQL [P225F]
- area with substrate ANLYFQS: 0.0652
- area with substrate CNLYFQS: 0.0674
- area with substrate DNLYFQS: 0.0613
- area with substrate KNLYFQS: 0.0676
- area with substrate LNLYFQS: 0.0703
- area with substrate NNLYFQS: 0.0551
- area with substrate PNLYFQS: 0.0655
- area with substrate QNLYFQS: 0.0088
- area with substrate TNLYFQS: 0.0337
- area with substrate WNLYFQS: 0.0593
- area with substrate YNLYFQS: 0.0572

Variant: MGESLFKGPRDYNPISSSICHLTNESDGHTTSLYGIGFGPFIITNKHLFRRNNGTLVVQSLHGVFKVKDTTTLQQHLVDGRDMIIIRMPKDFPPFPQKLKFREPQREERICLVTTNFQTKSMSSMVSDTSCTFPSGDGIFWKHWIQTKDGQCGSPLVSTRDGFIVGIHSASNFTNTNNYFTSVPKNFMELLTNQEAQQWVSGWRLNADSVLWGGHKVFMVKPEEPFQPVKEAGQL [T233G]
- area with substrate ANLYFQS: 0.0837
- area with substrate CNLYFQS: 0.0824
- area with substrate DNLYFQS: 0.0789
- area with substrate HNLYFQS: 0.0692
- area with substrate INLYFQS: 0.0595
- area with substrate KNLYFQS: 0.0737
- area with substrate MNLYFQS: 0.064
- area with substrate TNLYFQS: 0.074
- area with substrate WNLYFQS: 0.0597
- area with substrate YNLYFQS: 0.0297

Variant: MGESLFKGPRDYNPISSSICHLTNESDGHTTSLYGIGFGPFIITNKHLFRRNNGTLVVQSLHGVFKVKDTTTLQQHLVDGRDMIIIRMPKDFPPFPQKLKFREPQREERICLVTTNFQTKSMSSMVSDTSCTFPSGDGIFWKHWIQTKDGQCGSPLVSTRDGFIVGIHSASNFTNTNNYFTSVPKNFMELLTNQEAQQWVSGWRLNADSVLWGGHKVFMVKPEEPWQPVKEATQL [F226W]
- area with substrate ANLYFQS: 0.0712
- area with substrate CNLYFQS: 0.078
- area with substrate DNLYFQS: 0.0832
- area with substrate GNLYFQS: 0.061
- area with substrate HNLYFQS: 0.0696
- area with substrate INLYFQS: 0.0601
- area with substrate KNLYFQS: 0.0495
- area with substrate LNLYFQS: 0.0591
- area with substrate PNLYFQS: 0.0362
- area with substrate QNLYFQS: 0.0632
- area with substrate SNLYFQS: 0.0857
- area with substrate TNLYFQS: 0.0676
- area with substrate VNLYFQS: 0.0598
- area with substrate WNLYFQS: 0.0611
- area with substrate YNLYFQS: 0.0615

Variant: MGESLFKGPRDYNPISSSICHLTNESDGHTTSLYGIGFGPFIITNKHLFRRNNGTLVVQSLHGVFKVKDTTTLQQHLVDGRDMIIIRMPKDFPPFPQKLKFREPQREERICLVTTNFQTKSMSSMVSDTSCTFPSGDGIFWKHWIQTKDGQCGSPLVSTRDGFIVGIHSASNFTNTNNYFTSVPKNFMELLTNQEAQQWVSGWRLNADSVLWGGHKVFMVIPEEPFQPVKEATQL [K221I]
- area with substrate ANLYFQS: 0.0306
- area with substrate CNLYFQS: 0.0567
- area with substrate DNLYFQS: 0.0796
- area with substrate FNLYFQS: 0.0622
- area with substrate GNLYFQS: 0.0454
- area with substrate HNLYFQS: 0.0531
- area with substrate KNLYFQS: 0.0652
- area with substrate LNLYFQS: 0.0339
- area with substrate MNLYFQS: 0.0623
- area with substrate PNLYFQS: 0.0655
- area with substrate RNLYFQS: 0.0583
- area with substrate TNLYFQS: 0.0789
- area with substrate VNLYFQS: 0.0636
- area with substrate WNLYFQS: 0.0618
- area with substrate YNLYFQS: 0.0464

Variant: MGESLFKGPRDYNPISSSICHLTNESDGHTTSLYGIGFGPFIITNKHLFRRNNGTLVVQSLHGVFKVKDTTTLQQHLVDGRDMIIIRMPKDFPPFPQKLKFREPQREERICLVTTNFQTKSMSSMVSDTSCTFPSGDGIFWKHWIQTKDGQCGSPLVSTRDGFIVGIHSASNFTNTNNYFTSVPKNFMELLTNQEAQQWVSGWRLNADSVLWGGHKVFMVQPEEPFQPVKEATQL [K221Q]
- area with substrate ANLYFQS: 0.0538
- area with substrate CNLYFQS: 0.0572
- area with substrate DNLYFQS: 0.0625
- area with substrate FNLYFQS: 0.064
- area with substrate GNLYFQS: 0.0746
- area with substrate HNLYFQS: 0.0692
- area with substrate KNLYFQS: 0.0892
- area with substrate LNLYFQS: 0.057
- area with substrate MNLYFQS: 0.0704
- area with substrate NNLYFQS: 0.0642
- area with substrate SNLYFQS: 0.0614
- area with substrate TNLYFQS: 0.0602
- area with substrate VNLYFQS: 0.0508
- area with substrate WNLYFQS: 0.057
- area with substrate YNLYFQS: 0.0411
